# The other results are listed elsewhere or left out.
# B1: F17-L (Escherichia coli) (protein)
# chain: GPDDYVPSQIAVNTSTLPGVVIGPADAHTYPRVIGELAGTSNQYVFNGGAIALMRGKFTPALPKIGSITYTFHQGNSRDSSDFDIYDIGVSGLGIIIGMAGYWPATPLVPINSSGIYIDPVGANTNPNTYNGATASFGARLFVAFVATGRLPNGYITIPTRQLGTILLEAKRTSLNNKGLTAPVMLNGGRIQVQSQTHHHHHH
# Experiments:
# Assay in all cases: glycan array binding signal (z-score within array); higher = stronger binding
# Conditions in all cases: glycan notation: IUPAC condensed, linker removed
# Gal3S(b1-4)Glc6S = biological target: Gal3S(b1-4)Glc6S
# Summary of the method: (§1)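 Glycan array data were curated from 3228 arrays in the Consortium for Functional Glycomics database and kept only where the protein sequence was available. Glycan names were converted to IUPAC-condensed notation, and columns mapping to the same glycan were averaged. The binding signal is a within-array Z-score, averaged across arrays of the same protein sequence at different concentrations or buffers and across linkers. Negative Z-scores can be read as non-binding.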
# Gal3S(b1-4)GlcNAc = biological target: Gal3S(b1-4)GlcNAc
# Summary of the method: as §1
# [1] = biological target: Gal3S(b1-4)[Fuc(a1-3)]Glc6S
# Summary of the method: as §1
# [2] = biological target: Gal3S(b1-4)[Fuc(a1-3)]GlcNAc
# Summary of the method: as §1
# [3] = biological target: Gal3S(b1-4)[Fuc(a1-3)]GlcNAc6S
# Summary of the method: as §1
# Gal3S4S(b1-4)GlcNAc = biological target: Gal3S4S(b1-4)GlcNAc
# Summary of the method: as §1
# Gal3S6S(b1-4)GlcNAc = biological target: Gal3S6S(b1-4)GlcNAc
# Summary of the method: as §1
# Gal3S6S(b1-4)GlcNAc6S = biological target: Gal3S6S(b1-4)GlcNAc6S
# Summary of the method: as §1
# Gal4S(b1-4)GlcNAc = biological target: Gal4S(b1-4)GlcNAc
# Summary of the method: as §1
# Gal4S6S(b1-4)GlcNAc = biological target: Gal4S6S(b1-4)GlcNAc
# Summary of the method: as §1
# Gal6P(b1-4)GlcNAc = biological target: Gal6P(b1-4)GlcNAc
# Summary of the method: as §1
# Gal6S(b1-3)GlcNAc = biological target: Gal6S(b1-3)GlcNAc
# Summary of the method: as §1
# Gal6S(b1-3)GlcNAc6S = biological target: Gal6S(b1-3)GlcNAc6S
# Summary of the method: as §1
# Gal6S(b1-4)Glc = biological target: Gal6S(b1-4)Glc
# Summary of the method: as §1
# Gal6S(b1-4)Glc6S = biological target: Gal6S(b1-4)Glc6S
# Summary of the method: as §1
# Gal6S(b1-4)GlcNAc = biological target: Gal6S(b1-4)GlcNAc
# Summary of the method: as §1
# Gal6S(b1-4)GlcNAc6S = biological target: Gal6S(b1-4)GlcNAc6S
# Summary of the method: as §1
# GalNAc(a1-3)Gal = biological target: GalNAc(a1-3)Gal
# Summary of the method: as §1
# GalNAc(a1-3)GalNAc = biological target: GalNAc(a1-3)GalNAc
# Summary of the method: as §1
# [4] = biological target: GalNAc(a1-3)GalNAc(a1-3)Gal(a1-4)Gal(b1-4)GlcNAc
# Summary of the method: as §1
# [5] = biological target: GalNAc(a1-3)GalNAc(b1-3)Gal(a1-4)Gal(b1-4)Glc
# Summary of the method: as §1
# GalNAc(b1-3)Gal = biological target: GalNAc(b1-3)Gal
# Summary of the method: as §1
# [6] = biological target: GalNAc(b1-3)Gal(a1-4)Gal(b1-4)GlcNAc
# Summary of the method: as §1
# [7] = biological target: GalNAc(b1-3)Gal(a1-4)Gal(b1-4)GlcNAc(b1-3)Gal(b1-4)Glc
# Summary of the method: as §1
# [8] = biological target: GalNAc(b1-3)Gal(a1-6)Gal(b1-4)Glc
# Summary of the method: as §1
# GalNAc(b1-3)GalNAc = biological target: GalNAc(b1-3)GalNAc
# Summary of the method: as §1
# GalNAc(b1-3)GlcNAc = biological target: GalNAc(b1-3)GlcNAc
# Summary of the method: as §1
# GalNAc(b1-4)Gal(b1-4)Glc = biological target: GalNAc(b1-4)Gal(b1-4)Glc
# Summary of the method: as §1
# GalNAc(b1-4)GlcNAc = biological target: GalNAc(b1-4)GlcNAc
# Summary of the method: as §1
# [9] = biological target: GalNAc(b1-4)GlcNAc(b1-2)Man
# Summary of the method: as §1
# [10] = biological target: GalNAc(b1-4)GlcNAc(b1-2)Man(a1-3)[GalNAc(b1-4)GlcNAc(b1-2)Man(a1-6)]Man(b1-4)GlcNAc(b1-4)GlcNAc
# Summary of the method: as §1
# [11] = biological target: GalNAc(b1-4)GlcNAc(b1-3)GalNAc(b1-4)GlcNAc
# Summary of the method: as §1
# GalNAc(b1-4)GlcNAc6S = biological target: GalNAc(b1-4)GlcNAc6S
# Summary of the method: as §1
# GalNAc(b1-6)GalNAc = biological target: GalNAc(b1-6)GalNAc
# Summary of the method: as §1
# GalNAc3S(b1-4)GlcNAc = biological target: GalNAc3S(b1-4)GlcNAc
# Summary of the method: as §1
# GalNAc3S(b1-4)GlcNAc3S = biological target: GalNAc3S(b1-4)GlcNAc3S
# Summary of the method: as §1
# [12] = biological target: GalNAc3S(b1-4)[Fuc(a1-3)]GlcNAc
# Summary of the method: as §1
# GalNAc4S6S(b1-4)GlcNAc = biological target: GalNAc4S6S(b1-4)GlcNAc
# Summary of the method: as §1
# GalNAc6S(b1-4)GlcNAc = biological target: GalNAc6S(b1-4)GlcNAc
# Summary of the method: as §1
# Glc(a1-4)Glc = biological target: Glc(a1-4)Glc
# Summary of the method: as §1
# [13] = biological target: Glc(a1-4)Glc(a1-4)Glc(a1-4)Glc
# Summary of the method: as §1
# Glc(a1-6)Glc(a1-6)Glc = biological target: Glc(a1-6)Glc(a1-6)Glc
# Summary of the method: as §1
# [14] = biological target: Glc(a1-6)Glc(a1-6)Glc(a1-6)Glc
# Summary of the method: as §1
# Glc(b1-4)Glc = biological target: Glc(b1-4)Glc
# Summary of the method: as §1
# Glc(b1-6)Glc = biological target: Glc(b1-6)Glc
# Summary of the method: as §1
binder,measurement,setting,value
B1,glycan array binding signal (z-score),Gal3S(b1-4)Glc6S,-0.109
same,glycan array binding signal (z-score),Gal3S(b1-4)GlcNAc,-0.128
same,glycan array binding signal (z-score),[1],0.13
same,glycan array binding signal (z-score),[2],-0.048
same,glycan array binding signal (z-score),[3],-0.061
same,glycan array binding signal (z-score),Gal3S4S(b1-4)GlcNAc,-0.039
same,glycan array binding signal (z-score),Gal3S6S(b1-4)GlcNAc,-0.107
same,glycan array binding signal (z-score),Gal3S6S(b1-4)GlcNAc6S,0.102
same,glycan array binding signal (z-score),Gal4S(b1-4)GlcNAc,-0.113
same,glycan array binding signal (z-score),Gal4S6S(b1-4)GlcNAc,-0.103
same,glycan array binding signal (z-score),Gal6P(b1-4)GlcNAc,-0.111
same,glycan array binding signal (z-score),Gal6S(b1-3)GlcNAc,-0.116
same,glycan array binding signal (z-score),Gal6S(b1-3)GlcNAc6S,-0.114
same,glycan array binding signal (z-score),Gal6S(b1-4)Glc,-0.07
same,glycan array binding signal (z-score),Gal6S(b1-4)Glc6S,-0.033
same,glycan array binding signal (z-score),Gal6S(b1-4)GlcNAc,-0.154
same,glycan array binding signal (z-score),Gal6S(b1-4)GlcNAc6S,-0.119
same,glycan array binding signal (z-score),GalNAc(a1-3)Gal,0.004
same,glycan array binding signal (z-score),GalNAc(a1-3)GalNAc,-0.04
same,glycan array binding signal (z-score),[4],-0.173
same,glycan array binding signal (z-score),[5],-0.16
same,glycan array binding signal (z-score),GalNAc(b1-3)Gal,0.015
same,glycan array binding signal (z-score),[6],-0.147
same,glycan array binding signal (z-score),[7],0.668
same,glycan array binding signal (z-score),[8],-0.124
same,glycan array binding signal (z-score),GalNAc(b1-3)GalNAc,-0.19
same,glycan array binding signal (z-score),GalNAc(b1-3)GlcNAc,0.482
same,glycan array binding signal (z-score),GalNAc(b1-4)Gal(b1-4)Glc,-0.085
same,glycan array binding signal (z-score),GalNAc(b1-4)GlcNAc,-0.004
same,glycan array binding signal (z-score),[9],-0.217
same,glycan array binding signal (z-score),[10],-0.082
same,glycan array binding signal (z-score),[11],0.184
same,glycan array binding signal (z-score),GalNAc(b1-4)GlcNAc6S,-0.09
same,glycan array binding signal (z-score),GalNAc(b1-6)GalNAc,-0.038
same,glycan array binding signal (z-score),GalNAc3S(b1-4)GlcNAc,0.035
same,glycan array binding signal (z-score),GalNAc3S(b1-4)GlcNAc3S,-0.17
same,glycan array binding signal (z-score),[12],-0.148
same,glycan array binding signal (z-score),GalNAc4S6S(b1-4)GlcNAc,0.032
same,glycan array binding signal (z-score),GalNAc6S(b1-4)GlcNAc,0.037
same,glycan array binding signal (z-score),Glc(a1-4)Glc,-0.121
same,glycan array binding signal (z-score),[13],-0.06
same,glycan array binding signal (z-score),Glc(a1-6)Glc(a1-6)Glc,-0.033
same,glycan array binding signal (z-score),[14],-0.144
same,glycan array binding signal (z-score),Glc(b1-4)Glc,-0.1
same,glycan array binding signal (z-score),Glc(b1-6)Glc,0.058
